For 9 substances, EC50 results are on record in patent publication US12116397B2, “IL-IR-I binding polypeptide” (Swedish Orphan Biovitrum AB (publ), priority 2017, dated 2024).

The term EC50 denotes the concentration that produces a half-maximal response. A low value points to a more potent agent.

This test deals with T1, hIL-1R-I-Fc (Homo sapiens, UniProt P14778).
T1 construct: purchased Creative BioMart IL1 RI-771H
Description: EC50 analysis of Z variants by ELISA target titration. In kind it is binding. Particulars: periplasmic Z-ABD; hIL-1R-I-Fc 100 to 0.01 nM; first matured library (Example 4). On the procedure:
A selection of IL-1R-I binding Z variants was subjected to an analysis of response against a dilution series of hIL-1R-1-Fc using ELISA as described above. The target protein hIL-1R-1-Fc was diluted stepwise 1:10 from 100 to 0.01 nM. As a background control, the Z variants were assayed with no target protein added. Obtained data was analyzed using GraphPad Prism 5 and non-linear regression, and the EC50 values (the half maximal effective concentration) were calculated.
(§1) A selection of IL-1R-I binding Z variants was subjected to an analysis of response against a dilution series of hIL-1R-1-Fc using ELISA as described above. The target protein hIL-1R-1-Fc was diluted stepwise 1:10 from 100 to 0.01 nM. As a background control, the Z variants were assayed with no target protein added. Obtained data was analyzed using GraphPad Prism 5 and non-linear regression, and the EC50 values (the half maximal effective concentration) were calculated. A periplasmic extract with Z12967 (SEQ ID NO:9) was analyzed in parallel for signal comparison.
as §1, with “binding” for “binding Z variants”, “20” for “100”, “0.002” for “0.01”, “Periplasmic extracts” for “A periplasmic extract”, “Z12967, Z16065 and Z16218 (corresponding to SEQ ID:9, 268 and 414, respectively) were” for “Z12967 (SEQ ID NO:9) was”, “comparison. As negative control, a periplasmic extract of ABD001 was used.” for “comparison.”
A general note: An ELISA detects its analyte on a solid surface through an enzyme-linked reagent.

T1 sequence (P14778 with tags, fused parts or gaps limits assumed): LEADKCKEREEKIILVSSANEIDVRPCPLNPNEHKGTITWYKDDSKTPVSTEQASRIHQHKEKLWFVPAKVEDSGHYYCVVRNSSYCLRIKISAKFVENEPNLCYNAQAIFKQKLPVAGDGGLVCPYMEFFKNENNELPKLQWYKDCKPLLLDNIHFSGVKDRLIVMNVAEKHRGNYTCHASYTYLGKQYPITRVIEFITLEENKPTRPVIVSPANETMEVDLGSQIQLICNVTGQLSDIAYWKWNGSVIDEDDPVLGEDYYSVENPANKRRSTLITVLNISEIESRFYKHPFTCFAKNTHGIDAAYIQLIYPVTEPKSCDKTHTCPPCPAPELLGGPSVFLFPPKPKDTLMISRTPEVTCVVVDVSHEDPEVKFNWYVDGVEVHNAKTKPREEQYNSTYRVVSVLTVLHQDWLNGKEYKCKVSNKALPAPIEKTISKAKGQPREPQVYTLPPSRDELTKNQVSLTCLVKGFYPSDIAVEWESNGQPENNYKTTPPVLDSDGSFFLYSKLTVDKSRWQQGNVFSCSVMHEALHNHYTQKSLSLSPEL

Turning to “Z16405: IL-1R-I binding Z variant (VDAKYAKETEDAYFEIYHLPNLTRKQYTAFIRKLLDDPSQSSELLSEAKKLNDSQAPK; Engineered IL-1R-I binding polypeptide)”, the EC50 turned out to be 360 pM. With “Z17269: IL-1R-I binding Z variant (VDAKYAKEVEEAYQEIFHLPNLTRKQYTAFIRKLLDDPSQSSELLSEAKKLNDSQAPK; Engineered IL-1R-I binding polypeptide)” the figure was 270 pM; with “Z15811: IL-1R-I binding Z variant (VDAKYAKEVEEAQMEIFELPNLTRKQYTAFIRKLLDDPSQSSELLSEAKKLNDSQAPK; Engineered IL-1R-I binding polypeptide)”, 250 pM. “Z16162: IL-1R-I binding Z variant (VDAKYAKEAESAYWEIYHLPNLTRKQYTAFIRKLLDDPSQSSELLSEAKKLNDSQAPK; Engineered IL-1R-I binding polypeptide)” displayed an EC50 of 270 pM. As for “Z17288: IL-1R-I binding Z variant (VDAKYAKEADAAYFEIYHLPNLTRKQYTAFIRKLLDDPSQSSELLSEAKKLNDSQAPK; Engineered IL-1R-I binding polypeptide)”, the figure is 420 pM; as for “Z16206: IL-1R-I binding Z variant (VDAKYAKEVEEAQMEIFNLPNLTRKQYTAFIRKLFDDPSQSSELLSEAKKLNDSQAPK; Engineered IL-1R-I binding polypeptide)”, 450 pM; as for “Z17296: IL-1R-I binding Z variant (VDAKYAKEVETAYFEIYALPNLTRKQYTAFIRKLLDDPSQSSELLSEAKKLNDSQAPK; Engineered IL-1R-I binding polypeptide)”, 320 pM. The substance “Z17270: IL-1R-I binding Z variant (VDAKYAKETEEAYFEIYRLPNLTRKQYTAFIRKLLDDPSQSSELLSEAKKLNDSQAPK; Engineered IL-1R-I binding polypeptide)” displayed an EC50 of 300 pM.

As to “Z16121: IL-1R-I binding Z variant (VDAKYAKEVEDAYFEIYNLPNLTRKQYTAFIRKLLDDPSQSSELLSEAKKLNDSQAPK; Engineered IL-1R-I binding polypeptide)”, a half-maximal effect (EC50) was put at 230 pM.
